In PubChem BioAssay AID760 (NMMLSC, 2007):
Screen size: about 190,000 compounds; about 360 (0.19%) were called active. Inconclusive results, whose numbers are uncertain, are shown with a selection of clear calls.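 The calls were made as follows: active = GTP binding activity at least 20 points away from 100%, either lowered or raised; inconclusive = signal likely due to the compound's own green fluorescence; inactive = the rest.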

molecular target: Ras-related protein Rab-2A (Canis lupus familiaris) (UniProt P61105); test: modulators of GTP binding to Rab2A wildtype, primary screen, biochemical, dog, bead-based flow cytometry, multiplex (AID 760); details: GST-Rab2 wt beads, Bodipy-GTP binding, at 10 µM;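 also: 0% = beads with excess unlabeled GTP and 100% = no-compound control corrected for plate trend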

SMILES	GTP binding activity
CN1CCN(C(=O)COc2ccc(Oc3ccccc3)cc2)CC1	inconclusive: 94%
CSCCC(N=Cc1c(O)n(-c2ccc(Br)cc2)c(=O)[nH]c1=O)C(=O)OC(C)(C)C (stereo not given)	inconclusive: 92%
COc1cc(OC)cc(C(=O)Nc2ccc(Br)cc2C(=O)c2ccccc2)c1	inconclusive: 95%
COc1ccc(CC(=O)N2CCN(C)CC2)cc1OC	inconclusive: 106%
COCCCN=Cc1c(O)[nH]c(=S)[nH]c1=O	inactive: 99%
NS(=O)(=O)c1cccc(N2CCNCC2)c1	inconclusive: 98%
COCCCn1c(N)c(C(=O)Nc2sc3c(c2C(=O)OC)CCCC3)c2nc3ccccc3nc21	active: 66%
O=C(c1ccc(N2CC3CC(C2)c2cccc(=O)n2C3)c([N+](=O)[O-])c1)N1CCCCC1 (stereo not given)	inactive: 98%
CN(C)C(Cc1ccccc1)C(=O)c1cccs1 (stereo not given)	inactive: 95%
CCOC(=O)c1c(/N=C/C2C(=O)NC(=S)NC2=O)sc2c1CCC2	inconclusive: 92%
OC(C#CCN1CCOCC1)(c1ccccc1)C1CCCC1 (stereo not given)	inconclusive: 103%
CC(C)OP(=O)(OC(C)C)C(O)c1ccc(Br)cc1 (stereo not given)	inconclusive: 104%
COc1cc2[nH]c(=O)n(-c3ccc(C)cc3)c(=O)c2cc1OC	inactive: 100%
Cc1ccc(C2SCC(=O)Nc3c2c(=O)[nH]n3C2CCOC(C)(C)C2)cc1 (stereo not given)	inactive: 101%
CCN(CC)c1ccc(N=Cc2c(O)n(Cc3ccccc3)c(=O)[nH]c2=O)cc1	inconclusive: 105%
Cc1nc2c(=O)n(C)c(=O)nc-2n(C)n1	inactive: 85%
CN(CCc1nnc(N)s1)[N+](=O)[O-]	inactive: 103%
Cc1cc(C)c(NC2=NCCCS2)c(C)c1	inconclusive: 102%
CCOCCCn1c(N)c(C(=O)Nc2sc3c(c2C(=O)OC)CCCC3)c2nc3ccccc3nc21	active: 72%
COC(=O)c1cncn1C(C)c1ccccc1 (stereo not given)	inconclusive: 102%
CN1C2CCC1CC(=NO)C2	inactive: 97%
CCC(=NCc1ccc2c(c1)OCO2)c1c(O)n(C)c(=O)n(C)c1=O	inconclusive: 92%
CCn1c(O)c(C=Nc2ccc(S(N)(=O)=O)cc2)c(=O)n(CC)c1=S	inconclusive: 103%
CNC(C(=O)c1ccccc1)C(OC(C)C)c1ccc(Cl)cc1 (stereo not given)	inactive: 102%

SMILES	GTP binding activity
CC1(C)CC(n2[nH]c(=O)c3c2NC(=O)CSC3c2ccccc2)CCO1 (stereo not given)	active: 75%
Cc1c(N=Nc2c(O)[nH]c(=S)[nH]c2=O)c(=O)n(-c2ccccc2)n1C	inactive: 100%
COC(=O)c1c(C)[nH]c(C(=O)C(C)[N+]23CCN(CC2)CC3)c1C (stereo not given)	inactive: 95%
N#CC1=C(N)Oc2c(c(=O)sc3ccccc23)C1c1cccnc1 (stereo not given)	inactive: 91%
N=C1c2ccccc2CN1NC(=O)c1ccc(F)cc1	inconclusive: 105%
COc1ccccc1N1C(=O)NC(=O)C2(Cc3cc(C)ccc3N(C)C2)C1=O (stereo not given)	inactive: 98%
O=C1NC(=O)C(C/C=C/c2ccccc2)C(=O)N1	inconclusive: 103%
O=C(c1ccc(N2CC3CC(C2)c2cccc(=O)n2C3)c([N+](=O)[O-])c1)N1CCCC1 (stereo not given)	inactive: 100%
CCCCn1c(O)c(C(C)=NCc2ccc(F)cc2)c(=O)[nH]c1=O	inconclusive: 103%
Cc1cc(C)cc(N2C(=O)NC(=O)/C(=C\c3cc(C)n(C)c3C)C2=O)c1	inconclusive: 93%
CC(C)(C)C(=O)OCC12CCC(O1)C1(C)C(=O)OCC21 (stereo not given)	inconclusive: 101%
CCN(CC)CCNCC(=O)Nc1ccc(Cl)cc1C(=O)c1ccccc1	inconclusive: 103%
COCCN1Cc2cc(=O)n3c([nH]c4ccccc43)c2C1=N	inconclusive: 90%
c1ccc(-c2[nH]c[n+](CC3CO3)c2-c2ccccc2)cc1 (stereo not given)	inconclusive: 111%
CCC(=NCCOc1ccc(Cl)cc1)c1c(O)n(C)c(=O)n(C)c1=O	inactive: 98%
Cc1cc(C)c(C2=NOC(O)(C(F)(F)F)C2)c(=O)[nH]1 (stereo not given)	inconclusive: 105%
CCC(C)N1Cc2ccccc2C1=N (stereo not given)	inconclusive: 108%
Cn1cccc1CNCCc1ccccc1F	inactive: 105%
Cc1nc2cc(C(=O)N3CCC4(CC3)OCCO4)ccc2n1-c1cccc(F)c1	inconclusive: 91%
CC(=O)C1C(=O)NC23CCCCC2C1c1ccccc1O3 (stereo not given)	inconclusive: 103%
Cc1nn(Cc2ccccc2Cl)c(Cl)c1C(=O)O	inconclusive: 97%
CCOC(=O)c1c(NC(=O)c2c(N)n(CCCOC)c3nc4ccccc4nc23)sc2c1CCCC2	inconclusive: 73%
[N-]=[N+]=NC1C[C@H](n2ccc(=O)[nH]c2=O)O[C@@H]1CO (stereo not given in full)	inactive: 100%
CCn1nc(/C=C/c2ccccc2)nc2c(=O)n(C)c(=O)nc1-2	inactive: 83%

SMILES	GTP binding activity
Cc1sc(-n2c(C)cc(C=C3C(=O)NC(=O)NC3=O)c2C)c(C#N)c1C	inactive: 82%
CCCSP1(=S)NCCCO1 (stereo not given)	inconclusive: 98%
O=c1c2ccccc2ncn1-c1ccc([N+](=O)[O-])c(C(F)(F)F)c1	inconclusive: 104%
CNCCc1nc(N)n[nH]1	inconclusive: 103%
Cc1ccc(CCN2CC(C(=O)N3CCC4(CC3)OCCO4)CC2=O)cc1 (stereo not given)	inconclusive: 94%
COc1ccccc1N1CCN(Cc2cccc(OC)c2O)CC1	inconclusive: 103%
O=c1[nH]c(=S)[nH]c(O)c1N=Nc1cc2c(cc1[N+](=O)[O-])OCO2	inactive: 81%
CCCCCCN=C(CC)c1c(O)n(CCCC)c(=O)[nH]c1=O	inconclusive: 101%
O=C(NC(C(Cl)Cl)N1CCOCC1)c1ccccc1 (stereo not given)	inactive: 96%
O=C1NC(=O)C(=Cc2cc(Cl)ccc2OCc2ccc(C(=O)O)cc2)C(=O)N1	inconclusive: 90%
CSc1nnc([C@@H](N)Cc2c[nH]c3ccccc23)o1	inconclusive: 98%
OC1CCCCC1N1CCC(c2ccccc2)CC1 (stereo not given)	inactive: 101%
O=C1NC(=O)N(CCNc2ncc(C(F)(F)F)cc2Cl)C(=O)C1Cc1ccc(Cl)cc1 (stereo not given)	inconclusive: 93%
CCCCN1C(=O)/C(=C\c2ccco2)C(=O)N(CCc2ccccc2)C1=O	inconclusive: 74%
O=c1[nH]c(=S)[nH]c(O)c1N=Nc1ccc2c(c1)OCO2	inactive: 94%
N=Cc1c(O)n(-c2cccc(Cl)c2)c(=O)[nH]c1=O	inconclusive: 107%
O=C(O)C1C2c3ccccc3C(c3ccccc32)C1C(=O)Nc1ccccc1 (stereo not given)	inactive: 95%
CCN(CC)c1ccc(/C=N/c2sc3c(c2C#N)C2CCN3CC2)c(O)c1	inconclusive: 125%
CC(C)[C@H]1C(=O)O[C@H](C(C)C)C(=O)N(C)[C@@H](C(C)C)C(=O)O[C@H](C(C)C)C(=O)N(C)[C@@H](C(C)C)C(=O)O[C@H](C(C)C)C(=O)N1C	inconclusive: 94%
OC(CCNCCc1c[nH]c2ccccc12)C(F)(F)F (stereo not given)	inactive: 97%
Cc1ccc(NC(=O)c2snnc2C)cc1Cl	inconclusive: 92%
Cc1cc(NC(=O)CCl)no1	inconclusive: 97%
Cn1c(O)c(C(c2ccccn2)c2c(O)n(C)c(=S)[nH]c2=O)c(=O)[nH]c1=S	inactive: 99%
Cc1ccc(-n2c(O)c(/C=N/c3ncc(Br)cc3Br)c(=O)[nH]c2=O)cc1	inactive: 94%

SMILES	GTP binding activity
COc1ccc(NC(=O)c2cn(CCC#N)nc2-c2ccc([N+](=O)[O-])cc2)cc1	inconclusive: 92%
Cc1cc(Br)c(NC(=O)CN2CC=C(c3ccccc3)CC2)c(Br)c1	inconclusive: 91%
Cc1nn(Cc2ccccc2Cl)c(C)c1C(=O)NC1CCCc2ccccc21 (stereo not given)	inactive: 99%
Cc1nnc(SCc2nc3ccccc3c(=O)n2-c2ccccc2Cl)n1N	inconclusive: 106%
Nc1ccc(Br)cc1C(=O)c1ccccc1	inconclusive: 90%
CC(C)N1C(=O)CCC1C(=O)N1CCC2(CC1)OCCO2 (stereo not given)	inconclusive: 90%
Cc1nn(Cc2ccccc2)c(Cl)c1C(=O)O	inconclusive: 125%
Cc1ccc(-c2nc3ccccc3c(=O)n2-c2cc(C)ccn2)cc1	inconclusive: 95%
C=Cn1ccnc1P(=S)(c1nccn1C=C)C1CCCCC1	inconclusive: 94%
C/C(=N\N1CCN(C)CC1)c1c(O)[nH]c(=O)[nH]c1=O	inactive: 100%
CC(Oc1ccc(-c2ccccc2)cc1)C(=O)O (stereo not given)	active: 141% [activator]
Nc1c(C(=O)NCc2ccco2)c2nc3ccccc3nc2n1CCN1CCCCC1	inconclusive: 89%
Cc1sc2ncn(CC(=O)N3CCC4(CC3)OCCO4)c(=O)c2c1C	inconclusive: 105%
C=CCN1C(=O)/C(=C/c2ccc3c(c2)CCCN3CCC)C(=O)NC1=S	inconclusive: 91%
CSc1ncc(/C=C2/C(=O)NC(=O)N(c3ccc(Cl)cc3)C2=O)cn1	inactive: 100%
COc1cc2c(cc1OC)C(C(=O)N1CCC3(CC1)OCCO3)C(c1ccccc1F)N(C)C2=O (stereo not given)	inconclusive: 100%
c1cncc(C2CC(c3cccs3)n3ncnc3N2)c1 (stereo not given)	inactive: 108%
CCN(CC)P(=O)(c1n(CC)cc[n+]1CC)N(CC)CC	inactive: 99%
O=C(c1ccco1)c1cn(Cc2ccc(Cl)cc2)c2ccccc12	inconclusive: 101%
O=C1NC(=S)N(Cc2ccco2)C(=O)/C1=C\c1cccs1	inconclusive: 76%
COc1ccc(-c2cc(=NCCC(=O)O)c3cc(C)ccc3o2)cc1	inconclusive: 82%
c1ccc2oc(N3CCNCC3)nc2c1	inconclusive: 104%
O=C(COc1ccc(Br)cc1)N1CCN(C2CCCC2)CC1	inconclusive: 105%
